Source: the supplement of paper PMC4604168 (melanoma cell lines)
Some of the results follow. Repeats are few or missing, and single values can be far off.

Legend:
Assay in all cases: cell count relative to DMSO control; melanoma cells; higher = more viable cells
Details in all cases: library dose: low library concentration; 72 h
[1] = tested on: MeWo
[2] = tested on: RPMI7951
[3] = tested on: RVH-421
[4] = tested on: SkMel28
[5] = tested on: SkMel30
[6] = tested on: SkMel5
[7] = tested on: UACC257
[8] = tested on: UACC62
[9] = tested on: WM115
[10] = tested on: WM1716
[11] = tested on: WM1745
[12] = tested on: WM3526
[13] = tested on: WM3619
[14] = tested on: WM451Lu
[15] = tested on: SkMel2
[16] = tested on: MZ2-MEL
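Also: cell number obtained by counting DAPI-stained nuclei in high-throughput microscope images with image analysis software, screen run in 1,536-well plates.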

Cc1cc(Nc2cc(N3CCN(C)CC3)nc(Sc3ccc(NC(=O)C4CC4)cc3)n2)n[nH]1 [Tozasertib] + CC(C)CCN1c2nc(Nc3cc(F)c(O)c(F)c3)ncc2N(C)C(=O)C1C [BID1870] (first compound 0.006 µM, partner dose 0.2 µM)
cell count [1]: 85.2% | cell count [2]: 106% | cell count [3]: 112% | cell count [4]: 77.3% | cell count [5]: 86.9% | cell count [6]: 88.5% | cell count [7]: 95.4% | cell count [8]: 81.7% | cell count [9]: 74.4% | cell count [10]: 95.8% | cell count [11]: 88.7% | cell count [12]: 88.2% | cell count [13]: 106% | cell count [14]: 96.9%

Cc1cc(Nc2cc(N3CCN(C)CC3)nc(Sc3ccc(NC(=O)C4CC4)cc3)n2)n[nH]1 [Tozasertib] + Cc1cc(Nc2cc(N3CCN(C)CC3)nc(/C=C/c3ccccc3)n2)n[nH]1 [ENMD2076] (first compound 0.006 µM, partner dose 0.04 µM)
cell count [1]: 95% | cell count [2]: 106% | cell count [3]: 101% | cell count [4]: 99.3% | cell count [15]: 98.3% | cell count [5]: 96.7% | cell count [8]: 99.4% | cell count [9]: 96.5% | cell count [10]: 99% | cell count [11]: 93% | cell count [12]: 111% | cell count [13]: 97.3% | cell count [14]: 97.6%

Cc1cc(Nc2cc(N3CCN(C)CC3)nc(Sc3ccc(NC(=O)C4CC4)cc3)n2)n[nH]1 [Tozasertib] + N#CC[C@H](C1CCCC1)n1cc(-c2ncnc3[nH]ccc23)cn1 [ruxolitinib] (first compound 0.006 µM, partner dose 1 µM)
cell count [1]: 102% | cell count [2]: 137% | cell count [3]: 99.8% | cell count [4]: 128% | cell count [15]: 96.8% | cell count [5]: 120% | cell count [8]: 113% | cell count [9]: 109% | cell count [10]: 113% | cell count [11]: 93.1% | cell count [12]: 120% | cell count [13]: 89% | cell count [14]: 90.1%

N#CC[C@H](C1CCCC1)n1cc(-c2ncnc3[nH]ccc23)cn1 [ruxolitinib] + CCCCCCCCCCCCCCCCCCOP(=O)([O-])OC1CC[N+](C)(C)CC1 [Perifosine] (first compound 1 µM, partner dose 0.4 µM)
cell count [16]: 106% | cell count [1]: 81.9% | cell count [2]: 89.5% | cell count [3]: 74.4% | cell count [15]: 88.9% | cell count [5]: 81.9% | cell count [8]: 121% | cell count [9]: 118% | cell count [10]: 88.1% | cell count [11]: 113% | cell count [12]: 118% | cell count [13]: 96.4% | cell count [14]: 91.9%

N#CC[C@H](C1CCCC1)n1cc(-c2ncnc3[nH]ccc23)cn1 [ruxolitinib] + Cc1ccc(Nc2nccc(N(C)c3ccc4c(C)n(C)nc4c3)n2)cc1S(N)(=O)=O [Pazopanib] (first compound 1 µM, partner dose 0.4 µM)
cell count [16]: 76% | cell count [1]: 95.3% | cell count [2]: 94.9% | cell count [4]: 91.1% | cell count [15]: 96% | cell count [5]: 83.1% | cell count [8]: 103% | cell count [9]: 113% | cell count [10]: 88.5% | cell count [11]: 74.4% | cell count [12]: 103% | cell count [13]: 116% | cell count [14]: 93.4%

CC[C@]1(O)C[C@H]2CN(CCc3c([nH]c4ccccc34)[C@@](C(=O)OC)(c3cc4c(cc3OC)N(C=O)[C@H]3[C@@](O)(C(=O)OC)[C@H](OC(C)=O)[C@]5(CC)C=CCN6CC[C@]43[C@@H]65)C2)C1 [vincristine] + CO[C@H]1C[C@@H]2CC[C@@H](C)[C@@](O)(O2)C(=O)C(=O)N2CCCC[C@H]2C(=O)O[C@H]([C@H](C)C[C@@H]2CC[C@@H](OCCO)[C@H](OC)C2)CC(=O)[C@H](C)/C=C(\C)[C@@H](O)[C@@H](OC)C(=O)[C@H](C)C[C@H](C)/C=C/C=C/C=C/1C [everolimus] (first compound 0.0001 µM, partner dose 0.02 µM)
cell count [16]: 74.3% | cell count [1]: 57.6% | cell count [2]: 46.2% | cell count [3]: 75.5% | cell count [4]: 36.3% | cell count [5]: 44.3% | cell count [8]: 38.4% | cell count [9]: 41.8% | cell count [10]: 36.6% | cell count [11]: 72.4% | cell count [12]: 56.8% | cell count [13]: 43.4% | cell count [14]: 43.1%

CC[C@]1(O)C[C@H]2CN(CCc3c([nH]c4ccccc34)[C@@](C(=O)OC)(c3cc4c(cc3OC)N(C=O)[C@H]3[C@@](O)(C(=O)OC)[C@H](OC(C)=O)[C@]5(CC)C=CCN6CC[C@]43[C@@H]65)C2)C1 [vincristine] + Nc1cccc2c1CN(C1CCC(=O)NC1=O)C2=O [lenalidomide] (first compound 0.0001 µM, partner dose 1 µM)
cell count [1]: 87.9% | cell count [2]: 51.6% | cell count [3]: 78.4% | cell count [4]: 83.7% | cell count [5]: 53.6% | cell count [8]: 55.8% | cell count [9]: 52.6% | cell count [10]: 43.3% | cell count [11]: 82.9% | cell count [12]: 71.4% | cell count [13]: 56.7% | cell count [14]: 63.5%
